From PubChem BioAssay AID493208 (National Center for Advancing Translational Sciences (NCATS), 2011)
Among all 44,000 compounds or so, about 340 (0.77%) were called active. Inconclusive results (about 5%) are left out. Calls follow the shape of the dose curve; as a rule, active = well fitted inhibition curve with a large enough effect; inconclusive = small, poorly fitted or top-dose-only effect; inactive = flat fitted curve, though single readings scatter. The list shows a part of the results.

Assay: Acumen qHTS Assay for Inhibitors of the mTORC1 Signaling Pathway in MEF (Tsc2-/-, p53-/-) Cells: Sytravon; also: nearly all actives have a fitted effect of over 50% in size;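 as to activity change, negative = inhibition: plate controls were DMSO for no effect and rapamycin for full effect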
Conditions: phospho-rpS6 immunofluorescence/PI, 24 h; series mostly up to 38.3 µM; activity change, negative = inhibition: at the top concentration
How it was run: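 Immunofluorescence of rpS6 phosphorylation in Tsc2-/-, p53-/- MEFs after 24 h compound exposure, normalized to propidium iodide signal. Activity is expressed as % positive cells, thresholded with 7.5 nM rapamycin.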
Potency is read from the fitted curve at half-maximal effect.

Row | Structure (SMILES) | activity change, negative = inhibition | Potency
1 | Cn1ccc2cc(S(=O)(=O)N3CCCN(C(=O)Nc4ccccc4Br)CC3)ccc21 | inactive: -7.39% | –
2 | CCC1CN(C(=O)N2CCC(C(=O)NCCN(C)C)CC2)c2ccccc2O1 (stereo not given) | inactive: 7.64% | –
3 | Cc1ccc(NC(=O)c2cnc(SCC(=O)N3CCOCC3)n(C)c2=O)cc1 | inactive: -15.6% | –
4 | COc1cccc(NC(=O)CN(C)S(=O)(=O)c2ccc3nc(C)sc3c2)c1 | inactive: 1.6% | –
5 | COc1ccc(C)cc1N(C)C(=O)c1c(C)oc2ncnc(N3CCOCC3)c12 | inactive: -3.81% | –
6 | CN(c1ccc(Cl)cc1)S(=O)(=O)c1nnc(NC(=O)C2CCCCC2)s1 | inactive: 5.79% | –
7 | COc1cc(C(=O)Oc2c(Sc3ccc(C)cc3)c(C)nn2-c2ccccc2)cc(OC)c1OC | inactive: 26.6% | –
8 | CCOc1ccccc1NC(=O)c1c(NC(=O)c2ccccc2C)sc2c1CCC(C)C2 (stereo not given) | inactive: 0.727% | –
9 | CCNC(=O)c1cnc2sc(N3CCCCCC3)nn2c1=O | inactive: 1.54% | –
10 | COC(=O)c1c(C)sc(-c2c(-c3ccc4c(c3)OCCO4)[nH]c3c2c(=O)n(C)c(=O)n3C)c1O | inactive: -1.12% | –
11 | O=C(NCCc1ccc(Cl)cc1)c1ccc(CS(=O)Cc2cccc(Cl)c2)o1 (stereo not given) | inactive: -9.16% | –
12 | CCC(C)NC(=O)c1cnn(-c2ccc(Cl)cc2)c1C1CCN(C(=O)OC(C)(C)C)CC1 (stereo not given) | inactive: -5.4% | –
13 | COC(=O)c1n[nH]n(-c2ccccc2)c1=O | inactive: -0.156% | –
14 | Nc1nnc(SCC(=O)Nc2ccccc2C(F)(F)F)s1 | inactive: -21.5% | –
15 | Cc1cccc(NC(=O)C2CCCN(S(=O)(=O)c3cnc[nH]3)C2)c1C (stereo not given) | inactive: 1.68% | –
16 | CN(C1CCCCC1)S(=O)(=O)c1ccc2c(c1)c(=O)c(C(=O)NCCc1ccccc1)cn2C | inactive: 0.916% | –
17 | Cn1c(=O)c2cc(C(=O)N3CCN(c4ccc(Cl)cc4)CC3)sc2c2ccccc21 | inactive: 0.391% | –
18 | CCOC(=O)c1cc(NC(=O)c2ccc(F)cc2)c(=O)n2c1oc1ccccc12 | inactive: -2.2% | –
19 | Cc1oc(-c2ccc(C(=O)Nc3cc(F)ccc3F)cc2)nc1COc1ccccc1 | inactive: -5.97% | –
20 | CCNC(=O)Cc1ccc(NC(=O)N2CCCCc3ccccc32)cc1 | inactive: -3.23% | –
21 | CCN(CC)c1nn2c(=O)c(C(=O)NCc3ccc(F)cc3)cnc2s1 | inactive: 2.88% | –
22 | CCCn1c2ccccc2c2cnn(CC(=O)NCCc3ccc(OC)cc3OC)c(=O)c21 | inactive: -9.56% | –
23 | Cc1nc(-c2ccccc2)sc1CCNS(=O)(=O)c1ccc(Br)cc1 | inactive: -14.1% | –
24 | CCn1nc(C)c(CCN(C)C(=O)Nc2cc(Cl)ccc2C)c1C | inactive: 9.8% | –

Row | Structure (SMILES) | activity change, negative = inhibition | Potency
25 | COc1ccc(CC(=O)NCCc2csc(-c3ccc(Cl)cc3)n2)cc1 | inactive: -6.42% | –
26 | O=C(Nc1ccc(Cl)cc1)N1CCN(c2ccc3nnc(-c4ccc(F)cc4)n3n2)CC1 | inactive: -6.37% | –
27 | Cc1ccc(-n2nc(CO)c(C(=O)NCc3cccs3)n2)cc1 | inactive: 3.92% | –
28 | COc1ccccc1CCNC(=O)C(=O)NCC(c1ccco1)S(=O)(=O)c1ccc(C)cc1 (stereo not given) | inactive: -14% | –
29 | Cc1cc(NC(=O)Nc2nc3c(s2)CCCCCC3)ccc1Br | inactive: -2.38% | –
30 | CCCCn1c(CNC(=O)c2ccc(OC)cc2)nnc1SCC(=O)Nc1ccc(OC)cc1 | inactive: -0.734% | –
31 | Cc1ccc(NCc2nc3ccccc3n2CCOc2ccccc2)cc1 | inactive: -0.415% | –
32 | COc1ccccc1Nc1cc(C(=O)NCc2cccs2)c2ccccc2n1 | inactive: 1.32% | –
33 | CCC(=O)N1CCc2cc(S(=O)(=O)CCC(=O)NCc3ccccc3OC)ccc21 | inactive: -1.73% | –
34 | COc1ccc2nc3oc(C(=O)NCc4ccccc4OC)cc3cc2c1 | inactive: -2.77% | –
35 | NC(=O)CSc1ncc2c(n1)-c1ccccc1N(Cc1cccc(F)c1)S2(=O)=O | inactive: -5.91% | –
36 | COc1ccc(-c2noc(-c3nnn(-c4cc(C)ccc4C)c3N)n2)cc1 | inactive: -5.02% | –
37 | COc1ccccc1-c1nnc(C2CCN(C(=O)c3ccc(C)cc3)CC2)o1 | inactive: 10.1% | –
38 | CC1(C)CC(=O)c2c(oc3c(Cl)cc(NS(=O)(=O)c4ccc(Cl)cc4)cc23)C1 | inactive: -5.72% | –
39 | Cc1ccc(-c2nc(CS(=O)CC(=O)N3CCN(c4ccc(Cl)cc4)CC3)c(C)o2)cc1 (stereo not given) | inactive: -12.9% | –
40 | CN(C)S(=O)(=O)c1ccc2c(c1)N(CC(=O)N1CCN(c3ccc(F)cc3)CC1)CCS2 | inactive: 0.8% | –
41 | CC1CCN(c2ccc(-c3nc(C(C)C)no3)cc2[N+](=O)[O-])CC1 | inactive: 0.411% | –
42 | Cc1ccc(-n2ncc(C(=O)NCCc3ccsc3)c2C2CCN(C(=O)OC(C)(C)C)CC2)cc1C | inactive: 6.51% | –
43 | Cc1nc2ccccc2c(=O)n1-c1ccc(NC(=O)C(F)(F)F)cc1 | inactive: 0.777% | –
44 | Cc1cc(NC(=O)CSc2ncc(C(=O)Nc3ccc(F)cc3)c(=O)n2C)no1 | inactive: 0.223% | –
45 | O=C(CC(NCc1cccnc1)C(=O)O)Nc1ccc(F)cc1 (stereo not given) | inactive: 2.97% | –
46 | O=c1oc2ccc(Br)cc2cc1-c1csc(-c2ccc(Cl)cc2)n1 | inactive: -1.16% | –
47 | C=Cc1ccc(Cn2c(C(=O)O)c(CNCc3cc(Br)ccc3OC)c3ccc(C)cc32)cc1 | inactive: -0.717% | –
48 | Cc1cccc(N2CCN(C(=O)CS(=O)(=O)c3cccc4nsnc34)CC2C)c1 (stereo not given) | inactive: -9.21% | –

Row | Structure (SMILES) | activity change, negative = inhibition | Potency
49 | CCCN1C(=O)C2(c3ccccc31)c1c(oc3ccccc3c1=O)C(=O)N2CCO (stereo not given) | inactive: 2.78% | –
50 | CC(C)(C)OC(=O)N1CCC(c2c(C(=O)N3CCCCC3)cnn2-c2ccccc2Cl)CC1 | inactive: 3.39% | –
51 | Cn1c(=O)oc2cc(S(=O)(=O)CCC(=O)NCCc3ccc(Cl)cc3)ccc21 | inactive: -10.6% | –
52 | COc1ccc(NCc2cc3cc4c(cc3n(CC(=O)Nc3ccc(C)c(C)c3)c2=O)OCO4)cc1 | inactive: -6.59% | –
53 | COc1ccccc1OCc1nc(C#N)c(NCc2ccc(C)cc2)o1 | inactive: -2.78% | –
54 | Cn1c(=O)c2sccc2n2c(CCCC(=O)NC3CCCCC3)nnc12 | inactive: 2.19% | –
55 | Cc1ccc(Cl)cc1N1CCN(S(=O)(=O)c2cc(Br)cc3c2N(C(=O)C2CC2)CC3)CC1 | inactive: -12% | –
56 | COc1ccc(-c2nn(-c3ccccc3)cc2C2NC(=O)NC(C)=C2C(=O)OC(C)C)cc1Cl (stereo not given) | inactive: 4.85% | –
57 | CC(=O)Nc1ccc(NC(=O)C(Cc2ccccc2)NS(=O)(=O)c2ccc3c(c2)oc(=O)n3C)cc1 (stereo not given) | inactive: -3.89% | –
58 | CCOC(=O)CC(NC(=O)CCc1c(C)nc2c(c1C)c(=O)n(C)c(=O)n2C)c1ccc(OCC)c(OC)c1 (stereo not given) | inactive: -0.212% | –
59 | CC(C)c1ccc(NS(=O)(=O)c2ccc3[nH]cc(C(=O)NCCc4ccccc4)c(=O)c3c2)cc1 | inactive: -11.6% | –
60 | CCOC(=O)c1cc(-c2ccc(F)cc2)n(CCC(=O)Nc2nc3ccc(OC)cc3s2)c1C | inactive: -12.6% | –
61 | COc1ccc(S(=O)(=O)N(CC(=O)Nc2cc(Cl)ccc2C)Cc2ccccc2)cc1OC | inactive: 18% | –
62 | Cc1ccc(-n2nc(C)c3c(C)cc(=O)n(CC(=O)NC(C)c4ccccc4)c32)cc1 (stereo not given) | inactive: -6.18% | –
63 | CCOc1cc(-c2ccc(OC(=O)c3ccc(OC)cc3)c(OC)c2)cc(=O)c2c(C)oc(C)c12 | inactive: -3.46% | –
64 | CCn1nc(C)c2c(-c3ccccc3)cc(=O)n(C(C)C(=O)NCCc3ccc(OC)c(OC)c3)c21 (stereo not given) | inactive: 0% | –
65 | O=S(=O)(c1ccc(Cl)cc1)c1nnn2c1nc(NCc1ccc3c(c1)OCO3)c1sccc12 | inactive: 3.32% | –
66 | Cc1ccc(N(CC(=O)Nc2cc(C)ccc2C)S(=O)(=O)c2c(C)noc2C)cc1 | inactive: -3.22% | –
67 | CCCCN(CC)CCNC(=O)C1CCCN(c2ncnc3onc(C)c23)C1 (stereo not given) | inactive: 0.365% | –
68 | COc1ccc(-n2c(SCC(=O)c3ccccc3)nc3c([nH]c4ccccc43)c2=O)cc1 | inactive: -5.57% | –
69 | CCOc1ccccc1NC(=O)C1CCN(S(=O)(=O)c2ccc3c(c2)CCCN3C(C)=O)CC1 | inactive: -0.758% | –
70 | Cc1ccc(COC(=O)c2[nH]c3c(c2C)C(=O)CC(c2ccc(N(C)C)cc2)C3)cc1 (stereo not given) | inactive: -4.64% | –
71 | CC(=O)c1ccc(NC(=O)c2ccc(-n3cnnc3)cc2)cc1 | inactive: -6.02% | –
72 | CCC(=O)N1c2ccccc2CC1C(=O)NCc1ccc(N(C)C)cc1 (stereo not given) | inactive: 4.33% | –

Row | Structure (SMILES) | activity change, negative = inhibition | Potency
73 | CCOc1ccc(C(=O)c2oc3ccccc3c2NC(=O)c2cc(-c3ccc(Cl)cc3)on2)cc1 | inactive: 0.438% | –
74 | COc1ccc(-c2nnc(SCC(=O)N(C)C3CCCCC3)o2)cc1OC | inactive: 1.4% | –
75 | O=c1oc2c3c(ccc2c2ccccc12)OCN(Cc1ccccc1Cl)C3 | inactive: 2.25% | –
76 | O=S(=O)(NCC(c1ccco1)S(=O)(=O)c1cccs1)c1ccc(Cl)cc1 (stereo not given) | – | active: 18.5 µM
77 | CN(Cc1ccccc1)c1ncnc2c1nnn2C | inactive: -20.3% | –
78 | COC(=O)c1sccc1S(=O)(=O)N(CC(=O)Nc1ccccc1F)c1ccccc1 | inactive: -8.81% | –
79 | Cc1ccc(CSCCC(=O)NCc2ccc(F)cc2Cl)cc1 | inactive: -22.1% | –
80 | Cc1ccc(C(=O)NCCc2ccc(S(N)(=O)=O)cc2)cc1-n1cnc2cccnc21 | inactive: -5.73% | –
81 | Cc1cccc(C(=O)n2nc(-c3cccnc3)nc2NCc2ccccc2)c1 | inactive: -9.81% | –
82 | CCn1cc(C(=O)NCCCOC)c(=O)c2cc(S(=O)(=O)N3CCCC3)ccc21 | inactive: -6.99% | –
83 | Cc1ccc(NC(=O)Nc2ccccc2OCc2cc(=O)n3ccccc3n2)c(Cl)c1 | inactive: -6.34% | –
84 | O=C(CCCCn1c(=O)c2ccccc2n(CC(=O)Nc2ccc(F)cc2F)c1=O)NCCc1ccccc1 | inactive: 2.34% | –
85 | COC(=O)c1c(NC(=O)Cc2coc3ccc(C(C)C)cc23)sc2c1CCC2 | inactive: -19.8% | –
86 | CCOc1ccccc1NC(=O)CCNS(=O)(=O)c1cccc2nonc12 | inactive: 0.116% | –
87 | CCOc1ccccc1NC(=O)C1CCCN1S(=O)(=O)c1ccc2c(c1)C(C)(C)C(=O)N2C (stereo not given) | inactive: -1.59% | –
88 | COc1cc(C(=O)Nc2ccc3c(c2)N(C2CCCC2)C(=O)c2ccccc2S3)cc(OC)c1OC | inactive: 0.279% | –
89 | COc1ccc(NC(=O)N2CCOc3ccc(Cl)cc32)cc1 | inactive: 2.37% | –
90 | Cc1cc(NC(=O)c2ccc3c(c2)OCCO3)cc(-c2nc3ccccc3o2)c1O | inactive: -10.8% | –
91 | CCOC(=O)c1c(NC(=O)c2cc3nc(-c4ccc(Br)cc4)cc(C(F)(F)F)n3n2)sc(C(C)=O)c1C | inactive: -2.56% | –
92 | CCC(C(=O)NCc1ccc(OC)c(OC)c1)n1nc(C)c2c(C)n(-c3ccc(C)cc3)nc2c1=O (stereo not given) | inactive: -2.62% | –
93 | COc1ccc(Cc2nc3c4cnn(-c5ccccc5F)c4ncn3n2)cc1 | inactive: -3.03% | –
94 | COc1ccc(Cl)cc1N(C)C(=O)c1cc2c(=O)oc3ccc(C)cc3c2s1 | inactive: -8.76% | –
95 | CCCCNC(=O)c1cc(-c2ccc(OC)cc2)nc2n[nH]c(-c3cccc([N+](=O)[O-])c3)c12 | inactive: -5.36% | –
